The test system of one assay is HSkMC. Kind of assay: cytotoxicity call (relative viability < 0.9). The note with it: 10 µM.
In the next assay the test system is HepG2. Kind of assay: cytotoxicity call (relative viability < 0.9). To be noted: 10 µM.
For the next assay, the system named is S. aureus RN4220. The experiment in a line: growth inhibition call (relative growth <= 0.2). To be noted: 50 µM.

Each structure is given as a SMILES string. This is one part of the list.

For the compound `COc1ccc(S(=O)(=O)Nc2ccc3c(c2)C(=O)N([C@H](C)CO)C[C@@H](C)[C@H](CN(C)S(=O)(=O)c2ccc(OC)cc2)O3)cc1`, the cytotoxicity call in the assay on HSkMC and with HepG2 was “inactive” in each case. Besides, in the assay with S. aureus RN4220, the growth inhibition call is “inactive”.

For `COc1cc(OC)cc(-c2ccc([C@H]3CC(=O)C[C@@H](c4ccccc4)C34C(=O)c3ccccc3C4=O)cc2)c1`, the cytotoxicity call in the assay with HSkMC and with HepG2 was “inactive” throughout. For the same compound, the growth inhibition call with S. aureus RN4220 was “active”.

As for `Clc1ccc(C(c2ccccc2Cl)C(Cl)Cl)cc1` (stereo not given), the cytotoxicity call in the assay on HSkMC and in the assay with HepG2 was “inactive” in each case. Besides, in the assay on S. aureus RN4220, the growth inhibition call is “inactive”.

On to `O=C(C[C@H]1C[C@H]2c3cc(NC(=O)Nc4ccccc4)ccc3O[C@H]2[C@H](CO)O1)NCCN1CCCCC1`, for which the cytotoxicity call in the assay on HSkMC (human skeletal muscle cells) and in the assay with HepG2 was “inactive” each time. In addition, in the assay on S. aureus RN4220, the growth inhibition call was “inactive”.

For the compound `C[C@H](CO)N1C[C@H](C)[C@H](CN(C)C(=O)Nc2ccc3c(c2)OCO3)OCCCC[C@H](C)Oc2ccc(NC(=O)Nc3ccccc3)cc2C1=O`, the cytotoxicity call in the assay with HSkMC and with HepG2 was “inactive” each time. Besides, in the assay with S. aureus RN4220, the growth inhibition call was “inactive”.

For the origin of these results see the antibiotic and cytotoxicity screens of Wong et al. (2023).
